Among all 310,000 compounds or so, about 2,200 (0.71%) showed an effect of 50% or more. The effect is printed as a negative number. Some of the results follow.

For this assay, the target named is human ether-à-go-go-related gene (hERG) potassium channel (human, UniProt Q12809). As to the kind of experiment: primary screen, population patch clamp on CHO cells stably expressing hERG.
Chain of human ether-à-go-go-related gene (hERG) potassium channel (Q12809 whole entry, looked up): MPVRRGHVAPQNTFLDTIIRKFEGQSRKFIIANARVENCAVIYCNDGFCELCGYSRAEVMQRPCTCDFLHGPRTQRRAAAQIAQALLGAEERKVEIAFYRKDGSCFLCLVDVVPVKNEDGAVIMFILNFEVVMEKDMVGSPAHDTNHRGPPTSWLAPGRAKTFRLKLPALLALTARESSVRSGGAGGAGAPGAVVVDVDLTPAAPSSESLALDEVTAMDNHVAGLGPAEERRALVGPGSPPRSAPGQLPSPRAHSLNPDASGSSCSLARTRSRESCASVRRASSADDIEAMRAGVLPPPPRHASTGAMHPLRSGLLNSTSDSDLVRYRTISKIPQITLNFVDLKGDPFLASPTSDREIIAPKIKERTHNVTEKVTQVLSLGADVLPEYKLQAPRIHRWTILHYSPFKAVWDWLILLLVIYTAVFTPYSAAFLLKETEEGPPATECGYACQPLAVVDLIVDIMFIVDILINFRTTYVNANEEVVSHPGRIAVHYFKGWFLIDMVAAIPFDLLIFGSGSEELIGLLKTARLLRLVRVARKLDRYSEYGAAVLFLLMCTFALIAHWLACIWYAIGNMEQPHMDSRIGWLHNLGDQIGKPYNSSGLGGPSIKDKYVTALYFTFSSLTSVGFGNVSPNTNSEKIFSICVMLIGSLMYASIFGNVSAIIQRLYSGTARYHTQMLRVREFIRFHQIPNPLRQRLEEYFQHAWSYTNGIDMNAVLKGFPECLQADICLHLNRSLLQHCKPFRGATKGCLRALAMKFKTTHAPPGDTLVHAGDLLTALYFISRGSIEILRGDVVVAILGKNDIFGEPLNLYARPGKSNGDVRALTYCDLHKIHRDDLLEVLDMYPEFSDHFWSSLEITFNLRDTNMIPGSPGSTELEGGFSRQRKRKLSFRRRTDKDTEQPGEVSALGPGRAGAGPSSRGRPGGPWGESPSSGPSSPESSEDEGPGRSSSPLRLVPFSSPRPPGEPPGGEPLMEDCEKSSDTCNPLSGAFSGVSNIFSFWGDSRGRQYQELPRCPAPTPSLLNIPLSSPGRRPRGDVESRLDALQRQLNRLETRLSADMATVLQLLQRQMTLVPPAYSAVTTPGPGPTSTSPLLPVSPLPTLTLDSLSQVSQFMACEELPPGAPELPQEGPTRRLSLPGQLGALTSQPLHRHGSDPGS
As for `CCc1ccc(NC(=O)CCC(=O)N2CCSc3ccccc32)cc1`, the “hERG current change (%, negative = inhibition) at 1uM” value is 8.82%.
For the compound `COc1ccccc1NS(=O)(=O)NC(=O)c1c(C)[nH]c2ccccc12`, the “hERG current change (%, negative = inhibition) at 1uM” value is recorded as 14.7%.
Next, `Cc1ccccc1NC(=O)C(=O)NCCCN1CCCC1=O`: 20.7%; `N#Cc1ccc(CN2CCN(C(=O)c3ccccc3)CC2)c(Cl)c1`: -5.84%; `CCCCc1nnc(SCc2ccc(OCC)cc2)n1N`: 12.2%.
As for `Fc1cccc(Cl)c1-c1nnc2ccc(C(F)(F)F)cn12`, the figure is 11.8%.
As for `CC(C)[C@H](NC(=O)NCCc1ccccc1)C(=O)O`, the figure is 11.2%; as for `Cc1ccc(S(=O)(=O)N(C)c2ccc(C(=O)NCc3ccccn3)cc2)cc1`, 4.59%; as for `FC(F)(F)c1cccc(-c2nc(-c3ccncc3)no2)c1`, 7.89%.
As to `CCOC(=O)CSc1ccc(-c2nc3ccccc3[nH]2)cn1`, the “hERG current change (%, negative = inhibition) at 1uM” value was 9.8%.
With `CCOc1ccc2nc(N3CCC(C(=O)Nc4nnc(CC)s4)CC3)sc2c1`, the “hERG current change (%, negative = inhibition) at 1uM” value was 1.64%.
For the compound `COc1cc(C=C2C(=O)c3ccccc3C2=O)cc(OC)c1OC`, the “hERG current change (%, negative = inhibition) at 1uM” value is listed as -0.75%.
As for `S=C1NCN(CCc2ccccc2)CN1Cc1ccccc1`, the figure is 17.4%; as for `CCCCn1c(O)c(C=Nc2c(C)n(C)n(-c3ccccc3)c2=O)c(=O)[nH]c1=O`, 5.7%; as for `CN1CCN(c2nc3c(c(=O)[nH]c(=O)n3C)n2CCSc2nc3ccccc3s2)CC1`, 6.06%.
Next, `CC(=O)c1cccc(NC(=O)NCc2ccccn2)c1`: -0.444%.
As for `CCCN(CCC)CCN1C(=O)C2C(C(=O)Nc3ccc(C)cc3)C3C=CC2(O3)C1C(=O)NC1CCCCC1` (stereo not shown), the figure is 9.92%.
As for `CC(=O)Nc1ccc([C@H]2[C@H](C)CC[C@H]3C(=O)N4[C@@H](CC[C@@H](C)[C@@H]4c4ccc(NC(C)=O)cc4)C(=O)N32)cc1`, the “hERG current change (%, negative = inhibition) at 1uM” value is reported as 22.3%.
Next, `CC1CCN(S(=O)(=O)c2ccc3c(c2)N(CC(=O)N(C)Cc2ccco2)C(=O)CO3)CC1`: 12.3%; `O=P(O)(O)c1ccccc1OCc1ccccc1`: 5.82%; `O=C(COC(=O)C1=COCCO1)Nc1ccc(F)cc1`: -0.194%.
As for `Cc1ccc(CN2C(=O)N/C(=C\c3cccn3-c3cccc(C(=O)O)c3)C2=O)cc1`, the figure is 8.31%.
Next, `CN1CCCN(S(=O)(=O)c2ccc3ccccc3c2)CC1`: 13.7%; `COc1ccc(C2C(C#N)=C(N)Oc3cc4c(cc32)OCO4)cc1` (stereo not shown): 7.31%; `C/C(=N\Nc1cccc2cccnc12)c1ccc[nH]1`: 6.24%.
For `CCC1CCCCN1CCCNC(=O)c1ccc(/C=C2/Sc3ccccc3NC2=O)cc1` (stereo not shown), the “hERG current change (%, negative = inhibition) at 1uM” value was -38.8%.
With `O=C(Nc1ccc(CN2CCCCC2)cc1)c1ccc(Br)o1`, the “hERG current change (%, negative = inhibition) at 1uM” value was -7.22%.
As for `COc1ccc(C2Nc3ccccc3C(=O)N2O)cc1CN1CCOCC1` (stereo not shown), the figure is 4.02%; as for `O=C(COc1ccc2ccc(=O)oc2c1)Nc1ccc(N2CCOCC2)cc1`, 12.9%.
Next, `O=C(Cn1cnc2c(nnn2Cc2ccccc2)c1=O)c1ccc(Cl)cc1`: 11.1%; `CCN1C(=O)N[C@@H](c2cccc(C(F)(F)F)c2)[C@H](C(=O)OC)[C@H]1C`: 6.91%.
Next, `Cc1cc(-c2ccccc2)nc(SCC(=O)c2cccc([N+](=O)[O-])c2)n1`: 4.42%; `C=CCN1C(C(=O)c2ccccc2)=C(OC(=O)COc2ccccc2)c2ccccc2S1(=O)=O`: 10.6%; `O=C(Nc1ccnn1C1CCN(C(=O)c2ccc(Cl)cc2)CC1)C1CC1`: -5.06%.
For the compound `COc1cc(C=O)ccc1OS(=O)(=O)c1ccc(NC(C)=O)cc1`, the “hERG current change (%, negative = inhibition) at 1uM” value is reported as 7.51%.
Next, `Cc1ccc(C(=O)COC(=O)c2cn(-c3ccccc3)nc2-c2ccccc2)cc1[N+](=O)[O-]`: 10.9%; `Cc1cccc(C(=O)NNC(=O)CN2C(=O)c3ccccc3C2=O)c1`: 6.01%; `COc1ccc(C(=O)COC(=O)CCN=C2NS(=O)(=O)c3ccccc32)cc1OC`: -12.1%.
As for `CC(C)c1ccc(S(=O)(=O)/N=C2/C=C(Sc3ncn[nH]3)C(=O)c3ccccc32)cc1`, the figure is 18.7%.
As for `CCC(NS(=O)(=O)c1cccs1)c1ccc(C)cc1` (stereo not shown), the figure is 8.69%.
As for `COc1ccccc1/C=C(\C#N)C(=O)Nc1ccc(S(N)(=O)=O)cc1`, the “hERG current change (%, negative = inhibition) at 1uM” value is 16.8%.
As for `CCSc1nnc(Cn2c(=O)sc3ccccc32)n1C`, the figure is 12.4%; as for `O=C(Nc1ccc(S(=O)(=O)N2CCCC2)cc1)c1cccnc1`, 14.2%.
As for `CN1CCN(S(=O)(=O)c2cccc(C(=O)Nc3nc(-c4ccccc4)cs3)c2)CC1`, the figure is 1.94%; as for `CCCCn1c(N)c(N(CCOC)C(=O)CN2C(=O)C3CCCCC3C2=O)c(=O)[nH]c1=O` (stereo not shown), 8.64%.
As for `CCOC(=O)c1cnc(SCc2nc(N)nc(Nc3ccc(OC)cc3)n2)nc1N`, the figure is 13.9%; as for `COc1ccc(/C=N/NC(=O)c2ccn[nH]2)cc1CN1CCOCC1`, 5.38%; as for `Cc1cc(C)cc(OCC(=O)OCc2nnc(-c3ccccc3)o2)c1`, 10.9%.
As for `C=CCNC(=O)/C(=C\c1ccc2c(c1)OCO2)NC(=O)c1ccc(Br)cc1`, the “hERG current change (%, negative = inhibition) at 1uM” value is recorded as -5.05%.
As for `O=C(Nc1ccc(F)cc1F)C1CCCN(c2ncnc3c2nc2n3CCCCC2)C1` (stereo not shown), the figure is 0.36%.
For `Cn1c(SCC(=O)Nc2nccs2)nnc1C1CC1`, the “hERG current change (%, negative = inhibition) at 1uM” value was 11.8%.
As for `O=c1oc(-c2cccs2)nc2sc3c(c12)CCC3`, the figure is 10.9%; as for `COCCOC(=O)C1=C(C)N(c2ccccc2)C(=S)NC1c1ccccc1C(F)(F)F` (stereo not shown), 11.4%.
Next, `CC(C)Oc1ccc(CC2CCC(=O)N(C)C2=O)cc1` (stereo not shown): -4.3%; `O=C(Nc1cccc(Cl)c1)N(CCN1CCOCC1)Cc1cccc(Cl)c1`: 7.58%; `c1ccc2sc(NC3=NCN(Cc4ccc5c(c4)OCO5)CN3)nc2c1`: 8.89%.
As for `COC(=O)C1=C(c2ccc(F)cc2OCc2ccccc2)C[C@@H]2CC[C@H]1N2C(=O)NCCO`, the figure is 11%.
On to `COc1cccc(CNC(=O)CCNS(=O)(=O)c2cccs2)c1`, for which the “hERG current change (%, negative = inhibition) at 1uM” value stood at 1.5%.
As for `CCSc1nnc(NC(=O)COc2ccc(Cl)cc2)s1`, the figure is 17.2%; as for `CCn1c(SCC(=O)NC2CCCC2)nnc1-c1ccoc1C`, 16.3%.
As for `COc1ccc(CN2CCN(C)CC2)cc1OCc1ccccc1`, the figure is 2.05%; as for `O=C(O)c1ccc(/C=N/NC(=O)c2ccc3c(c2)OCCO3)cc1`, 12.7%; as for `Cc1nc(N(C)C)c2sc(=S)n(C)c2n1`, 7.68%.
As for `Oc1ccc(Cl)cc1C=Nc1ccc(Br)cc1`, the figure is 16.5%.
In the case of `CSc1ccc(S(=O)(=O)NCC(=O)OC(C)C(=O)NCc2ccccc2)cc1[N+](=O)[O-]` (stereo not shown), the “hERG current change (%, negative = inhibition) at 1uM” value is 10.1%.
On to `O=C(Nc1cccnc1)c1cc(-c2ccc(Cl)cc2)on1`, for which the “hERG current change (%, negative = inhibition) at 1uM” value is reported as 13.2%.
As for `Nc1nc(N)nc(COc2ccccc2)n1`, the figure is 10.1%.
Next, `CCN(CC)S(=O)(=O)c1ccc(OC)c(NC(=S)Nc2cccc(C)c2)c1`: -0.259%; `C=CCN1C(=O)/C(=C/C=C2/N(CC)c3ccc(S(=O)(=O)N(C)C)cc3N2CC)SC1=S`: 9.33%; `Cc1ccc(S(=O)(=O)N(C)CC(=O)OCc2nnc(-c3ccccc3)o2)cc1`: -0.329%.
As for `Cc1ccc(NC(=O)COC(=O)CN2CCCCCC2=O)cc1C`, the figure is 4.71%; as for `O=C(CCc1ccccc1)NN1C(=O)C2C3C=CC(O3)C2C1=O` (stereo not shown), 16.2%; as for `CC(=O)Nc1ccc(/C=N/NC(=O)CNC(=O)c2ccccc2)cc1`, 13.6%.
As to `CC12CN3CCN(CC(C3)C1(O)CN1CCCCC1)C2` (stereo not shown), the “hERG current change (%, negative = inhibition) at 1uM” value amounted to 4.39%.
Next, `COc1ccc(/C=N/OC(=O)Nc2ccccc2)cc1[N+](=O)[O-]`: 6.58%; `Cc1ccc(NC(=O)c2cc(-c3ccccc3O)n[nH]2)cc1Cl`: 2.37%.
Next, `CCc1cccc(CC)c1NC(=O)Cn1c(-c2ccc(F)cc2)noc1=O`: 2.26%.
`CN(C=C1C(=O)CC(C)(C)CC1=O)CCN1CCNCC1`: the “hERG current change (%, negative = inhibition) at 1uM” value is on record as 2.4%.
Next, `COc1ccc(-c2nc3n(c(=O)c2C#N)CCCS3)cc1`: 8.67%; `O=C(c1cccn(Cc2cccc(Cl)c2)c1=O)N1CCOCC1`: -7.56%; `CC(=O)Nc1ccc(CN2CCCC(CO)(Cc3cccc(Cl)c3)C2)cc1` (stereo not shown): -10.1%.
Next, `COc1ccc(C(=O)N(CCc2ccccc2)Cc2cccs2)c(OC)c1`: 8.84%; `O=C(CSC1CN(C(c2ccccc2)c2ccccc2)C1)N/N=C/c1ccccc1`: 10%; `O=C(C1CCCCN1S(=O)(=O)c1ccccc1)N1CCCCC1` (stereo not shown): -1.18%.
With `Cc1cc([N+](=O)[O-])cc2c1NC(=O)C2(O)N1CCCCCC1` (stereo not shown), the “hERG current change (%, negative = inhibition) at 1uM” value is 10.6%.
Next, `CC(=O)Nc1ccc(/C=C/c2ccc3cccc([N+](=O)[O-])c3n2)cc1`: -3.41%; `CC(=O)Nc1ccc(S(=O)(=O)N2CCCc3ccccc32)cc1`: -4.77%; `Cn1nnc2cc(NC(=O)Nc3cccc(C(F)(F)F)c3)ccc21`: 9.81%.
